Screen size: about 350,000 compounds; about 260 (0.074%) were called active. This list was built around the results that the source calls inconclusive (neither active nor inactive); the mix of calls is not that of the screen. Calls follow the shape of the dose curve; as a rule, active = well fitted inhibition curve with a large enough effect; inconclusive = small, poorly fitted or top-dose-only effect; inactive = no such curve, though single readings can be large or run the other way. A potency beside an inconclusive call is a rough fit, not a confirmed value.
Biological target: Ferritin light chain (Equus caballus) (UniProt P02791)
Test: qHTS Assay for Identification of Novel General Anesthetics; also: nearly all actives have a fitted effect of over 20% in size
Conditions: apoferritin/1-aminoanthracene competitive binding, fluorescence; activity change, negative = displacement: at 77.5 µM (top of the series)
Method in brief: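 Horse-spleen apoferritin (10 uM) in 50% saturated 1-aminoanthracene in PBS was incubated 10 min at room temperature with compound. Fluorescence (ex 380, em 535 nm) was normalized to free and bound 1-AMA, with concentration-response fitted by a four-parameter Hill equation.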
% is scaled to controls: 0 for no effect and ±100 for the full control effect; potency is read from the fitted curve at half-maximal effect; tags tell the direction and shape of the fitted curve.

Sequence of UniProt P02791 (P02791 whole entry, looked up): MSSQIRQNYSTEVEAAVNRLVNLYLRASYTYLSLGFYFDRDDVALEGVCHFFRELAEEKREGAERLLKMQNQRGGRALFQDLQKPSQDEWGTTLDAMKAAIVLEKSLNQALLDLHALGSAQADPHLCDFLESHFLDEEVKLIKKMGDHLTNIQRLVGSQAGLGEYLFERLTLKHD

Row | Structure (SMILES) | Potency | activity change, negative = displacement
1 | O=C(Nc1ccc(C(F)(F)F)cc1)C1CCCN1S(=O)(=O)c1cccc2cccnc12 (stereo not drawn) | inconclusive: 35.5 µM [inhibitor, partial curve] | 
2 | C/C(=N\O)C(C)(C)Nc1cccc(F)c1 | inconclusive: 10 µM [inhibitor, partial curve] | 
3 | O=S(=O)(Cc1ccccc1Cl)N1CCCCC1 | inconclusive: 11.2 µM [inhibitor, partial curve] | 
4 | CCOCCCNCc1ccc(OCc2ccccc2Cl)cc1 | inconclusive: 50.1 µM [inhibitor, single point] | 
5 | Cc1cc(C)n(-c2nnc(C)n2/N=C/c2cc(Br)ccc2OCc2ccccc2)n1 | inconclusive: 31.6 µM [inhibitor, partial curve] | 
6 | Cc1cc(NC(=O)CCC(=O)N(c2ccccc2)C(C(=O)NC2CCCC2)c2ccccc2F)no1 (stereo not drawn) |  | inactive: 3.74%
7 | O=C1CCSC2(C(=O)N(Cc3ccc(F)cc3)c3ccccc32)N1c1ccccc1 (stereo not drawn) | inconclusive: 14.1 µM [inhibitor, partial curve] | 
8 | CCN(CCCNC(=O)CNC(=O)c1nn(-c2ccc(OC)cc2)c(=O)c2ccccc12)c1cccc(C)c1 | inconclusive: 39.8 µM [inhibitor, single point] | 
9 | CCCCCCOC(=O)C1=C(C)NC(=O)NC1c1ccc2c(c1)OCO2 (stereo not drawn) | inconclusive: 31.6 µM [inhibitor, single point] | 
10 | O=C(CCN1CCN(c2ccccc2)CC1)Nc1ccccc1F |  | inactive: -7.1%
11 | NC(=O)c1ccccc1NC(=O)/C=C/c1cccc(Cl)c1 | inconclusive: 31.6 µM [inhibitor, single point] | 
12 | COc1cc(/C=C2/C(=O)NN(c3ccc(Cl)c(Cl)c3)C2=O)cc([N+](=O)[O-])c1O | inconclusive: 2.51 µM [inhibitor, partial curve] | 
13 | O=C(CC1OC(=O)c2ccccc21)Nc1ccccc1N1CCOCC1 (stereo not drawn) |  | inactive: -11.8%
14 | O=C(COC(=O)c1ccc(Br)o1)Nc1nc2ccccc2s1 | inconclusive: 25.1 µM [inhibitor, partial curve] | 
15 | O=C(COCC(=O)Nc1cccc(C(F)(F)F)c1)Nc1cccc(C(F)(F)F)c1 | inconclusive: 12.6 µM [inhibitor, single point] | 
16 | CC(=O)N1c2ccc(S(=O)(=O)N3CCCC3)cc2CC1C(=O)NCc1ccc(OC(C)C)cc1 (stereo not drawn) | inconclusive: 39.8 µM [inhibitor, single point] | 
17 | Cc1cc2ccccc2n1CCNC(=O)C1CCCC1 | inconclusive: 50.1 µM [inhibitor, single point] | 
18 | O=C(O)C1C2C=CC(C2)C1C(=O)Nc1cccc(F)c1 (stereo not drawn) | inconclusive: 31.6 µM [inhibitor, single point] | 

Reference: PubChem BioAssay AID485281 (National Center for Advancing Translational Sciences (NCATS), 2010)
